Read counts are not given, so values of variants with three or more changes are uncertain.
B1: LINE1-mini (parent)
chain: GGCAGAGCUCAACACAGCGUGGCAAAGUGGCUGUGGCUAGACUGCC

Variants of: B1
Assay: self-cleavage, relative activity (ratio to wild type); higher = more cleavage; in vitro, sequencing; the parent is a self-cleaving ribozyme

Row | Variant | self-cleavage
1 | GGCAGAGCUCGACACAGCGUGGAAAAGUGGUUGUGGCUAGACGGCG [A11G C23A C31U U43G C46G] | 0.01
2 | GGCAGAGAUCAACAGAGCGUGGCAAAGUGGCUGUGGCUAGACUGCG [C8A C15G C46G] | 0.09
3 | GGCAGAGCUCCCCACAGCGUGGCAAAGUGGCUGUGGCGAGACUGCC [A11C A12C U38G] | 0
4 | GGCAGAGCUCGAGACAGCAUGGCAAAGCAGCGGUGCCUAGUCUGCC [A11G C13G G19A U28C G29A U32G G36C A41U] | 0.01
5 | GGCAGAGCUCAACACAGCGCGGAAAAGUGGCUGUGGAUAGACUGCC [U20C C23A C37A] | 0.03
6 | GGCAGAGCGCAACAAAGCGUGCCAAAGUGGCUGUGGCUAGACUGCC [U9G C15A G22C] | 0.03
7 | GGCAGAGCUCAACACAGCGUGGCAUAGUGGAUUUGGCUAGACUGCC [A25U C31A G33U] | 0.16
8 | UGCAGAGCUCAACACAGCGUGGCAAAGUGCUUGUGGCUAAACUGCC [G1U G30C C31U G40A] | 0.03
9 | GGCAGAGCUAAACGCAGCGUGGCAAAGUGUCUGUGGCUAGACUGCC [C10A A14G G30U] | 0.01
10 | GGCAAAGCUAUACACAGCGUGGCAAAGUGGCUGUGGCUAGACUGCA [G5A C10A A11U C46A] | 0.04
11 | CGCAGAGCUCAACACAGAGUGGCAAAGUGGGUGUGGCUAGACUCCC [G1C C18A C31G G44C] | 0.09
12 | GGAAGAGGUCAUCACAGCGUGGCAAACUGGCUGUGUCUAGACUGCC [C3A C8G A12U G27C G36U] | 0.59
13 | GACCGAGCUUAACACAGCGUGGCAAAGUGGCUGUGGCUAGACGGCC [G2A A4C C10U U43G] | 0.08
14 | GGCAGACCUCAACACAGCGUGGCCAAUUGCCUGUGGCUAGACUGCC [G7C A24C G27U G30C] | 0.36
15 | UGCAGAGCUCAACACAGCGUGGCAAAGAGGCUGGGCAUAGACUGUC [G1U U28A U34G G36C C37A C45U] | 0
16 | GGCAGACCUCAACACAGCGUGGCAAAUUGGCUUUGGCUAGACUGCC [G7C G27U G33U] | 0.11
17 | GGCAGAGCUCAACACCGCGUGGCAAAGUGGCUGUAGCUAGGCUGCC [A16C G35A A41G] | 0.03
18 | AGUAGAGCGCAACACAGCGUGGCAAAGUGUCUAGGGCUAGACUGCC [G1A C3U U9G G30U G33A U34G] | 0.21
19 | GGAAGAGCUCAACACAGCGUGGCAAAGUGGCGGUGGCUAGACGGCC [C3A U32G U43G] | 0.48

Row | Variant | self-cleavage
20 | GGCAGAGCUCUCCACAGCGUGGCAAAGUGGCUGUGGCUACACUGCC [A11U A12C G40C] | 0
21 | GGCGGAGCUCAAGAGAGCGUGGCAAAGUGGCUGUGGGUAGACUGCG [A4G C13G C15G C37G C46G] | 0.04
22 | GCCAGCGCUCAACACAGCAUGUCAAAGUGGCUGUGGCUAGACUGCC [G2C A6C G19A G22U] | 0.31
23 | UCAAGAGCUCAACACAGCGUGCCAAAGUGGCUGUGGCUAGACUGCC [G1U G2C C3A G22C] | 0.21
24 | GGCAGAGCUCAAUACAGCGAGGCAAAGGGGCUGUGGCUAGACUGCA [C13U U20A U28G C46A] | 0.06
25 | GGCAGAGCUCAACACAGCGUAGCAAAGUGACUGAUGCUCGACUGCC [G21A G30A U34A G35U A39C] | 0.01
26 | AGCAGAUCUCAACACAGCGUGGCAAAAUGGCUGUGGCUAGACUGCC [G1A G7U G27A] | 0.19
27 | GGCAGAGCUCAACCCAGAGUGGCAAAGUGGCUGUGGCUAGGCUGCC [A14C C18A A41G] | 0.05
28 | GGCAGAGCUCUACUCAGCGUGGCAAAGUGGCAGUGUCUCGACUGCC [A11U A14U U32A G36U A39C] | 0.02
29 | GGCAUAGCUCAACACAGCGUGGCAGAGUCGCUGUGGCUAGACUGCC [G5U A25G G29C] | 0.01
30 | GGCAGAGCUCGACUCAGCGUGGCAAAGUGGCCGUUGCUAGACUCCC [A11G A14U U32C G35U G44C] | 0
31 | GGCAGAGCUCAACACGGCCUGGCAAAAUGGCUGUGACUAGACUGCC [A16G G19C G27A G36A] | 0.34
32 | GGCAGAGCUUAUCACAGCGUCGCAAAGUGACUGUGGCUAGACUGCC [C10U A12U G21C G30A] | 0.11
33 | GGCAGAGCUCAUCACAGUGCGGCAAAGUGGCUGUGGCUAGACUGCC [A12U C18U U20C] | 0.03
34 | GGCAAACCUCAACACAGCGUGGCAAAGUGGGUAUGGCUAGACUGCU [G5A G7C C31G G33A C46U] | 0.03
35 | AGCAGAGCUCAACACAGCUUGGCUAAGUGGCUAUGGCUAGACUGCC [G1A G19U A24U G33A] | 0.04
36 | GGAAGAGCACAACACAGCGUGGCAAAGUGGCUGUGGCUAGACCGAC [C3A U9A U43C C45A] | 0.25
37 | GGCAAAACUCAACACAGCGUGGCAAUGUGGCUGUGGCUAGACUGCC [G5A G7A A26U] | 0.53
38 | GGCAGAGCUCUACACAGCAUGGCAAAGUGGAUGUGGCUAUACUGCC [A11U G19A C31A G40U] | 0

Row | Variant | self-cleavage
39 | GGCAGAGCUCAACACAGGGUGGCAAAGUGGGUGUGUCUAGACUGCC [C18G C31G G36U] | 0.04
40 | GGCAGAGCUCAACUAAGCUUGGCAAAGUGGCUGUGGCUAGACUGCC [A14U C15A G19U] | 0.08
41 | GGCUGUGUUCAACACAGCGCGGCAAAGUGGCUCUGGCUACACUGCC [A4U A6U C8U U20C G33C G40C] | 0.03
42 | GACAGAGCUCAACACCGCGUGGGAAAGUGGCUGAGGCUAGACUGCC [G2A A16C C23G U34A] | 0.02
43 | AUGAGAGCUCAAAACAGGGUGGCAAAGCGGCAGUGGCUAGACUGCC [G1A G2U C3G C13A C18G U28C U32A] | 0.17
44 | GGCAGAGCUCAACACAGCCUGACAUAGUGGCUGUGGCUAGACUGCC [G19C G22A A25U] | 0.36
45 | GGCAGAGCUCUACACAGCGUGGCACAGUCGCUGUGGCUAGACUGCC [A11U A25C G29C] | 0.18
46 | GGCAGUGCUCAACACAGCGUGGCAAAGUCGCUGUGGCUAGAAUGCC [A6U G29C C42A] | 0.05
47 | GGCGGAGCUCAACAUAGCGUGGCAAAGUGGCUGUGGCAAGACUGCC [A4G C15U U38A] | 0.17
48 | CGCCGAGCGUAACACAGCGUGGCAAAGUGGCUGUGGGUAGACUGCC [G1C A4C U9G C10U C37G] | 0.01
49 | GGCAGAGCUCAGCUAAGCGUGGCAAAGUGGCUGCGGCUAGACUGCC [A12G A14U C15A U34C] | 0.02
50 | GGCAGAGGUCUAAACAGCGUGGCAAAUUGGCUGUGGCUAGUCUGCC [C8G A11U C13A G27U A41U] | 0.02
51 | GGCAGAGCUAAAGACAGCGUGGCCAAGUGGGCGUGGCUAGACUUCG [C10A C13G A24C C31G U32C G44U C46G] | 0
52 | GGCAGAGCUCAAAACAGCGUGGCAGAUUAGCUGUGGCUAGACUGCC [C13A A25G G27U G29A] | 0.18
53 | GGCAGAGCUCAACACAGCGUGGUAAAGUGGCUCUGGCUAGACGGCC [C23U G33C U43G] | 0
54 | GGCAGAGUUCAACACAGCGUGGCACAGUGGCUGUGGCUAGGCUGCC [C8U A25C A41G] | 0.44
55 | GGCAGAGCGCAACACAGCGCGGCAAAGUGGCUGUGGCUAGUCUGCC [U9G U20C A41U] | 0.08
56 | GGCAGUGCUCAACACACCGUGUCAAAGUGGCUGUGGCUAGACUGCC [A6U G17C G22U] | 0.11

From the RNAGym collection of RNA variant scans (doi:10.7554/elife.90254)
